In the supplement of paper PMC3334620:
Over roughly 33,000 sequences, “E-score (-0.5 to 0.5)” has its median near -0.054; the highest 2% begin near 0.39. The list shows a part of the results.

biological target: Ylr278c (UniProt Q05854); experiment: PBM E-score (8-mer binding enrichment) (E-score (-0.5 to 0.5)); higher = stronger / more preferred TF binding; most listed sequences are background and not binding sites; conditions: protein concentration: 200 nM; construct: GST-DNA-binding domain
How it was run: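 For each ungapped eight-base word taken together with its reverse complement, the Universal PBM Analysis Suite assigned an E-score. Binding data came from GST-tagged yeast transcription factors, applied at about 100-200 nM, on universal all-10-mer Agilent arrays made double-stranded by primer extension. Fluorescent anti-GST marked bound protein, and scans were normalised with masliner.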

Sequence | PBM E-score
CGAATAGC | -0.211
GAAGGGCA | -0.045
CAGTCACC | -0.133
ACGGGTCT | -0.101
AGGATTTC | 0.0497
AAGTAGCA | -0.224
CCTGTCAG | -0.18
ACTGCGCC | -0.0518
ATGGAACC | 0.0323
CGCGTTAC | 0.0774
GACCTAGA | -0.0337
CATAACGG | -0.0297
GTTAAAAC | -0.0331
TTCTAAAA | -0.0651
ATAATGCC | 0.192
TACTCTGA | -0.128
CATTTCCC | 0.161
CGTCCTAA | -0.21
GCGTGCAC | 0.0261
ATGTCTAC | -0.1
AAAAAACT | -0.111
GATACATC | -0.201
ATGTTGGA | 0.0684
GCTTTCCA | -0.0584
GGTTTTCA | 0.129

Sequence | PBM E-score
AAGATGCC | -0.0338
CTCCAAAG | -0.174
AGGGGAAC | -0.183
ACTTTAGC | -0.0362
CCTACTCG | 0.0578
CATAAACC | -0.0532
AGGTATGG | -0.0251
AGGCCGAG | 0.232
TGGCTGAA | -0.111
ATGTCGGG | 0.222
CAGATCGA | -0.113
AACACTAA | -0.126
AACAACTG | -0.075
GGAAATGA | 0.158
GATAAGGA | -0.0687
AATCACGT | -0.0575
CGCTAGCA | -0.0779
GCACGAAC | -0.129
CCATCTAA | -0.194
GGAATCAC | 0.197
AGAGCACG | -0.0334
AGAAGGGA | -0.283
GGAGGTTA | 0.101
ACGGCCGC | 0.191
GGAAGGGA | 0.0118

Sequence | PBM E-score
AAACAACT | -0.11
CGGTCAGC | 0.016
AAATTAGC | 0.0491
CACCTCCC | -0.129
GCCGAGCA | 0.168
GTATATCA | -0.148
AAAGAGGA | -0.158
CATTTGCC | -0.00499
ATACTGTA | -0.0669
GACGTCTA | -0.0686
ACAACCGG | 0.312
TTCTGAAA | -0.0593
CGAGTACC | 0.074
AGGCGCAC | 0.0855
CACTTCAA | 0.034
AATGATAC | -0.132
CACTGATC | -0.21
CGCCCTTA | 0.0182
CCTGAAAC | -0.00792
CTTTACCC | -0.132
CATATTCA | -0.192
AGGGTGAA | -0.114
CGGCATGA | 0.223
GGAGACCA | 0.14
CTGCGTGC | 0.0295

Sequence | PBM E-score
CCCTGCTC | -0.188
CTCTAGGC | -0.096
CCGGACGG | 0.396
GGCGGACA | 0.365
ACTCCCCG | 0.338
AATTGCCG | 0.286
GCCAGTTA | -0.0644
AGTCGTAT | -0.22
CGACCCTA | 0.0211
CTTAAATA | -0.124
GGTGACCA | -0.119
GGCTTGGA | -0.259
CCGATGCG | 0.361
CGGTACGA | -0.0494
ACCCATTA | -0.155
GCGTATCC | -0.0386
CAAGTGTG | -0.145
AAGGGGCT | -0.103
GTGCTTGA | -0.218
CGAACACG | 0.052
CCCACGCG | 0.0351
CGAAGTCG | 0.068
ACCATAGG | -0.247
GAGTTAGA | 0.00623
AATAAAAA | -0.0113

Sequence | PBM E-score
GATGGTAA | -0.181
GACAGAGA | -0.0753
CGACGTCG | 0.035
GATTATCA | -0.0144
AGTTGGCG | 0.116
AGGTAGCA | -0.197
GGTAATAA | 0.137
AGAGTCAA | -0.126
AGCAATAT | -0.0716
CTAATTAC | -0.0256
CGAAGCCG | 0.299
ACATGCTA | -0.25
CATGGGAA | -0.00467
ATGTACGG | 0.0545
CTTGTGGA | -0.266
CGCGTTTA | 0.125
AAGGAGAC | -0.214
ACTAAAGG | -0.26
ATTCACAA | 0.0169
CCCCTTCC | 0.00101
CGCACGCG | 0.124
GAATGGGC | 0.00577
CAGAGCAC | -0.123
GGGGGCAC | -0.138
GATCTGGC | 0.0483

Sequence | PBM E-score
ATCGGTGG | 0.13
ATCCGATG | 0.323
AGGGCCCA | 0.00775
ACCCATCA | -0.176
AACTGGCT | -0.199
CGAAGGCC | 0.127
AGAGCGGG | 0.0486
AATAAATC | -0.0705
CCTAATCC | 0.0242
AAAAGGCG | -0.156
GATAAGGC | -0.0603
GAGTTGAA | 0.0762
GTCCCCTA | -0.196
CATACGAA | -0.0505
CTTCCCGC | 0.148
AGTGAACT | -0.0578
ATACGTGG | -0.203
GGTTTGAC | 0.0439
CGTAGAAG | -0.039
TAAATCCA | -0.185
CTTCATTC | -0.0517
ATATCTGG | -0.0167
ACTACGAC | -0.0488
CTCCGCAG | 0.418
GCATATAA | -0.0828

Sequence | PBM E-score
CTCGCTCA | -0.126
CTGCCTTA | -0.132
ATCGGATA | 0.393
CACATTGC | -0.0898
CACCCTAC | -0.222
CTGGCGCC | -0.00499
CGTGATCC | -0.0838
CTGAGCTC | 0.0823
CGGGGAGA | 0.238
CCCTAAAG | -0.135
TACCAGGA | -0.0496
AACCTCAG | -0.0309
AAGCAAGG | -0.0604
ATGTAGCA | -0.0623
TAAAGTCA | -0.151
CAAAAGAC | -0.14
ACTATATG | -0.0969
TTAGTGAA | -0.106
AGAATCGG | 0.24
CAAGGCCC | 0.00531
GAGGATGC | 0.0373
GATGCCCA | 0.0254
CGCAAAAG | -0.00356
TATTGCAA | 0.171
CGTACCTA | -0.132

Sequence | PBM E-score
GGAAGCAC | 0.0988
AGGGGAAT | 0.117
CGACTCAC | 0.0265
CATATCCC | 0.141
CTAGAGAA | -0.0653
CTTAGAGA | -0.14
CCGCCAAA | 0.263
AACTACAC | -0.0892
CCACCCAG | -0.0325
TACACAAA | 0.0722
GCTCTTAA | -0.138
GGGGTAGA | 0.0892
CCTGTGAA | -0.144
GATAGTCA | -0.0752
GTATGGAA | -0.154
AATAGCTA | -0.0483
ATCTATAA | -0.18
AAAGCATA | -0.0825
GGGCTCCA | -0.118
CATATTCC | 0.179
CAGGTACA | -0.0635
CCCGGGGC | 0.317
ATGTACAC | -0.23
GAACCATC | -0.00377
CACGCGGA | 0.379

Sequence | PBM E-score
CCCTGACG | 0.0697
GCGGATAA | 0.314
AACTCAGT | -0.15
GACCAAAA | 0.0958
CGGCTCAA | 0.0909
TCACCTCA | -0.179
TATTGTAA | -0.13
GGATTCAC | 0.144
ATTGGCTG | -0.194
AGGCCTCC | -0.0758
GCTAACCA | -0.145
AGCCCTAG | -0.139
ATGCTAAT | -0.104
CATTAAAA | 0.14
CGTGATGA | -0.315
GAGCTTAC | 0.0501
GGAGGCCC | 0.175
CGCCGGGC | 0.378
AAGTCGCT | -0.163
